Laboratory results: the RNAGym collection of RNA variant scans (doi:10.7554/elife.90254)
The source gives no read counts; variants with many changes may rest on few reads.

B1: LINE1-mini (parent)
chain: GGCAGAGCUCAACACAGCGUGGCAAAGUGGCUGUGGCUAGACUGCC

Variants of: B1
Assay: self-cleavage, relative activity (ratio to wild type); higher = more cleavage; in vitro, sequencing; the parent is a self-cleaving ribozyme

Variant | self-cleavage
GGCAGAGCUCAACACAGCGUGGCAAACGCGGUGUGGCUAGACUGCC [G27C U28G G29C C31G] | 0.1
CGCAGAUCUCAACACAGCGUGGCAAAGUUGCUGUGGCUAAACUGCC [G1C G7U G29U G40A] | 0
UGCAGAGCUCAACACAGCGUGACUAAGUGGCUGUUGCUAGACUGCC [G1U G22A A24U G35U] | 0.07
GACAGAGCUCAACAAAGCUUGGCAAAGUGGCUGUGGCUGGACUGCC [G2A C15A G19U A39G] | 0.04
GGCAGAGAUCAACACAGCGUGGCAAAGUGGCUGUUGCUAGAUUGCC [C8A G35U C42U] | 0.06
GGCAGAUCUCAAGACAGCGAGGCAAAGUGGCUGUGGCCAGACUGCC [G7U C13G U20A U38C] | 0.44
GGCAGUGCUCAACACAGCGUGGAAAAGUCGCUGUGGCAAGACUGCC [A6U C23A G29C U38A] | 0.01
GGUUUAGCUCAACACAGCGUGGCAAAGUGGGUGUGGCUAGACUGCC [C3U A4U G5U C31G] | 0.04
GGCAGAGAUCAACACAGCGUGGGAAAGUGGCUGUGGCUAGACUGGC [C8A C23G C45G] | 0.05
GGCAGAGCUCAACACAGCGUGUCAAAGUGGCUGGGGCUAGACUGAC [G22U U34G C45A] | 0.19
GGCAGGGAUCAACACAGCGUCGCAAAGUGGCUGUGGCUAGACUGCC [A6G C8A G21C] | 0.14
GGCAGAGCUCAACACAGCGUGGCAAUGUGGCUCUGGCUCGACUGCC [A26U G33C A39C] | 0.03
GGCAGAGCUCAACACAGCGUGGAACAGUGUCUGUGUCUAGACUGCC [C23A A25C G30U G36U] | 0
GGCAGAGCCCAAGACAGCGCGGCAGAGUGGCGGUGGCUAGACUGCG [U9C C13G U20C A25G U32G C46G] | 0.02
GGCAGACCUCAACACAGCGUAGCAAAGUAGCUGUGGCUAGACUGCC [G7C G21A G29A] | 0.08
GUCAGAGCUCAACACUGCGUGGCAAAGUGGCCCUGGAUAGACUGCC [G2U A16U U32C G33C C37A] | 0.01
GGCAGAGCUCAACAGAACGUGGCAAAGUGGCUGUGGCUAGACUACC [C15G G17A G44A] | 0.02
GGCAGAGCUAAAUACAGCGUGGCAAAGUGGCUGUGGUUAGAAUGCC [C10A C13U C37U C42A] | 0.01
GGCAGAGCUCAACACAGCGUGGCAAAGUGGCUGUCGCUAUACUGCU [G35C G40U C46U] | 0.02

Variant | self-cleavage
GGCAGAGCUCAAUAUCGCGGGGCAAAUUGGCUGUGGCUAGACUCCC [C13U C15U A16C U20G G27U G44C] | 0.02
GUCAGAGCUCAACACGGCUGGGCAAAGUGGCUGUGGGGAGACUGCC [G2U A16G G19U U20G C37G U38G] | 0.01
GGCAGAGCUCAACACAGCGUGGCAAAGUGUCUGGGGCUAGACUGGC [G30U U34G C45G] | 0.03
UACAGAGCUCCACACAGCGUGGCAAUGUGGCAGUGGCUAGACUGCG [G1U G2A A11C A26U U32A C46G] | 0
GGCCGCGCAGAACACAGCGUGGCAAAGUGGCUGUGGCUAGACUGCC [A4C A6C U9A C10G] | 0.02
GGCAGAUCUCAACACAGCGUGGCAAAUUGGCUGUGUCUAGACUGCC [G7U G27U G36U] | 0.02
GGCAGAGCUCAACACCGCGUGGCAAAGUGGCUGUAGCUAUACUGCC [A16C G35A G40U] | 0.04
GGCAGAGCUCAACACAGCGUUGAAAAGUGACUGUGGCUAGACUGCC [G21U C23A G30A] | 1.86
GGCACAGCGCAACACAGCGUGGCAACGUGGCUGUGGCUAGACUGUC [G5C U9G A26C C45U] | 0.08
GGCAAAGCUCUACACAGCGUGGCAAAGUUGCUGUGGCUUGACUGCC [G5A A11U G29U A39U] | 0.03
GGCAGAGCUCAACACAGCUUGGCAAAGUGGCUGUGGCUAGACUUCA [G19U G44U C46A] | 0.04
GGCAGAGCGUAACGCAGCGUGGCAAAGUGGCUGUGGCUAGACUGAC [U9G C10U A14G C45A] | 0.03
GGGAGAGCUCAACACAGGGUUGCAAAGUGGCUGUGGCUAGACUGCC [C3G C18G G21U] | 0.06
GGCAGAACUAAACACAUCGUCGCAAAGUGGCUGUGGCUAGACUGCC [G7A C10A G17U G21C] | 0.03
GCCCGAGCUCAACACAGCGUGGCAACCUGGCGGUGGCUAGACUGCC [G2C A4C A26C G27C U32G] | 0.1
UGCAAAGCUCAAUACAGCGUGGCAAAGUGGCUGUGGCUAGACUUAC [G1U G5A C13U G44U C45A] | 0.04
GGCAUAGCUCAACACAGCGUGGCAAAGUGGCUGUGGCUAGAUUCCU [G5U C42U G44C C46U] | 0
GGCAGUGCUCAACACAGCGUGGCAGCUUGGCUGUGGCUAGACUGCC [A6U A25G A26C G27U] | 0.12
GGGAGAGCUCGACACAGCGUGGCAAAGUGGCUGUUGCUAGACUGGC [C3G A11G G35U C45G] | 0.02

Variant | self-cleavage
GGCAGAGCUCCACACAGCUUGCCAAAGUGGCCGUGGGUUGACUGCC [A11C G19U G22C U32C C37G A39U] | 0
GGCAUAGCUCAACACAGCGUGGCAAAGUGGCUCUGGCUGGACUGCC [G5U G33C A39G] | 0.02
AGCAGAGCUCAACAGAGCGCGGCAAAGUGGCUGGGCCUAGACUGCC [G1A C15G U20C U34G G36C] | 0.07
AGCAGAGCUCAACACAGCGUGGCAAAGUGGCUCUGGUUUGACUGCC [G1A G33C C37U A39U] | 0.05
GGCAGACCUCGACACUGCGUGGCACAGUGGCUGUGGCUAGACUGCC [G7C A11G A16U A25C] | 0.02
GGCAGAUCUCAACACAGCGUAGCAAAGUGGCUGUGGCUAGACUGAC [G7U G21A C45A] | 0.11
GGCGGAGCACAACACAGAGUGGCAAAGUGGCUGUGGCUAGACUGCA [A4G U9A C18A C46A] | 0.03
GGCAGAGCUCAACACAGCGUGGCAAAGUGGCUGAGGCUUGACUGCG [U34A A39U C46G] | 0.04
GGCUGAGCACAACACAGCGUGGCAAAGUGGCUAUGGCUAGACUGCC [A4U U9A G33A] | 0.27
GGCAGAGCUCAACUCAGGGUGUCAAAGUGGCUGUGGCUAGACUGCC [A14U C18G G22U] | 0.07
GGAAGAGCUCAACACAGCGUGGCAAAGUUGCUGUGGCUAGUCUGCC [C3A G29U A41U] | 0.38
GCCAGAGCUCAACACAGGUUGGCAAAGUGGCUGUGGCUCGACUGCC [G2C C18G G19U A39C] | 0.07
GGGAGAGCUUAACACAGCGUGGCAAAGUGGCUGUCACUAGACUGCC [C3G C10U G35C G36A] | 0.02
GGCAAAGCUCCACACAGCGUGACAAAAUGGCUGUGGCUAGCCUGCC [G5A A11C G22A G27A A41C] | 0.02
GGCAGAGGCCAACAGACCGUGGCAAAGUGGCAGUGGCUAGACUGCC [C8G U9C C15G G17C U32A] | 0.01
GGCAGAGCUCAACACCGCGUGGCAAAGUGGCUGUGUCUAGACCGCC [A16C G36U U43C] | 0.04
GGCAUAGCUCAUCACAGCGUCGCAAAGUGGCUGUGGCUUGACUGCC [G5U A12U G21C A39U] | 0.02
GGUAGAGCUAAACACAGCGGGGCAAAGUUGCUGUGGCUAUACUGCC [C3U C10A U20G G29U G40U] | 0.01
